Data: PubChem BioAssay AID588855 (National Center for Advancing Translational Sciences (NCATS), 2011)
Out of some 410,000 compounds screened, about 5,000 (1.2%) were called active. Inconclusive results, whose numbers are uncertain, are shown with a selection of clear calls. Calls come from the whole dose curve; as a rule, active = well fitted inhibition curve with a large enough effect; inconclusive = small, poorly fitted or top-dose-only effect; inactive = no such curve, though single readings can be large or run the other way. Where the call is inconclusive, the potency comes from a doubtful curve fit.

Experiment: qHTS for Inhibitors of TGF-b; note: nearly all actives have a fitted effect of over 65% in size
Settings: HepG2 CAGA-GFP TGF-b/SMAD3 reporter, GFP fluorescence, 18 h, TGF-beta stimulated, 500 pg/mL final; series mostly up to 46.1 µM; activity, negative = inhibition: at the top concentration
How it was run: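 HEPG2 CAGA-GFP cells (1000/well, DMEM with 1% FBS) were pre-incubated 2 h at 37 degrees C, given compound by pin tool, then stimulated with TGF-beta at 500 pg/mL final for 18 h before per-cell GFP fluorescence imaging.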
% is set by controls: 0 for no effect and ±100 for the full control effect; potency is the fitted concentration of half-maximal effect; tags give direction and shape of the fitted curve.

Row | Structure (SMILES) | activity, negative = inhibition | Potency
1 | COc1ccc(CCNC(=O)C2CCC(=O)N(C3CCCCCC3)C2)cc1 (stereo unspecified) | inactive: 1.51% | 
2 | Fc1ccc(OCCCCCCN2CCCC2)cc1 |  | inconclusive: 8.91 µM [inhibitor, partial curve, poor fit]
3 | CCOc1ccc(NC(=O)c2oc3ccccc3c2NC(=O)c2cc(C)cc(C)c2)cc1 |  | inconclusive: 35.5 µM [inhibitor, single point]
4 | Cc1ccc(CCNC(=O)CN(C)S(=O)(=O)c2cnc[nH]2)cc1 | inactive: -3.85% | 
5 | COc1ccc(C2N(C(=O)c3ccccc3)CCN2C(=O)c2ccc(C)cc2)cc1 (stereo unspecified) | inactive: -13.7% | 
6 | Cc1ccc(C(=O)Nc2nnc(S(=O)(=O)N3CCc4ccccc43)s2)cc1 |  | inconclusive: 14.1 µM [inhibitor, single point]
7 | NC(=O)c1cc([N+](=O)[O-])ccc1NCc1ccc(N)cc1 |  | inconclusive: 0.126 µM [inhibitor, full curve, poor fit]
8 | CC1=C(C(N)=O)C(c2cccs2)NC(=S)N1 (stereo unspecified) | inactive: -2.8% | 
9 | O=C(CN1CCN(c2ccc(C(F)(F)F)cn2)CC1)Nc1ccc2c(c1)OCO2 |  | inconclusive: 22.4 µM [inhibitor, single point]
10 | COc1ccc(-n2nc([N+](=O)[O-])c(=NCCc3ccccc3)n2O)cc1 |  | inconclusive: 35.5 µM [inhibitor, single point]
11 | Cc1ccc(NC(=S)NC(=O)c2ccc(F)cc2)cc1S(=O)(=O)Nc1ccccc1Cl |  | inconclusive: 15.8 µM [inhibitor, single point]
12 | CC(C)(C)NC(=O)C(c1ccncc1)N(Cc1ccc(F)cc1)C(=O)c1ccc(-c2ccccc2)[nH]1 (stereo unspecified) |  | inconclusive: 15.8 µM [inhibitor, partial curve, poor fit]
13 | Cc1c(N2C(=O)CSC2c2ccc(F)cc2)c(=O)n(-c2ccccc2)n1C (stereo unspecified) | inactive: -7.15% | 
14 | O=C(O)c1cccc(Nc2ncnc3scc(-c4ccccc4)c23)c1 | inactive: 39.7% | 
15 | CCOc1ccccc1-c1cc(NC)ncn1 | inactive: -12.2% | 
16 | C=CCC[C@@H](Cc1ccc(F)cc1)C(=O)O[C@H](CNC(=O)[C@@H](CC=C)CC(=O)N[C@H](CO)Cc1ccccc1)c1ccccc1 |  | inconclusive: 11.2 µM [inhibitor, partial curve]
17 | COc1cccc(/C=N/NC(=O)c2cc3c(OC)cccc3[nH]2)c1OC |  | inconclusive: 5.01 µM [inhibitor, single point]
18 | Cc1cc(C)c(-n2c(SCc3nc4ccccc4s3)n[nH]c2=O)c(C)c1 |  | inconclusive: 35.5 µM [inhibitor, single point]
19 | O=C(NCc1ccc(F)cc1)c1cc(-c2ccc(Cl)cc2)n[nH]1 |  | inconclusive: 35.5 µM [inhibitor, single point]
20 | Cc1ccc2nccc(/C=C/c3ccc(N(C)C)cc3)c2c1 | inactive: 1.36% | 
21 | C/[N+]([O-])=C/c1c(OCc2ccc(Cl)cc2Cl)ccc2ccccc12 |  | inconclusive: 2.24 µM [inhibitor, full curve, poor fit]
22 | CCc1ccc(-c2nn(CC(=O)NCc3ccccc3)c3c2cnc2ccc(F)cc23)cc1 |  | inconclusive: 5.62 µM [inhibitor, single point]

Row | Structure (SMILES) | activity, negative = inhibition | Potency
23 | CCS(=O)(=O)c1ccc2oc(Nc3ccc(C(C)(C)C)cc3)nc2c1 | inactive: 4.12% | 
24 | O=C(CN1CCN(c2ccccc2O)CC1)NC(c1ccccc1)c1ccccc1 |  | inconclusive: 28.2 µM [inhibitor, single point]
25 | COc1ccc(OCC(=O)NCc2ccc3c(c2)CCN3C(=O)c2ccc(F)cc2)cc1 |  | inconclusive: 31.6 µM [inhibitor, single point]
26 | CC(C)CC1C(=O)N(Cc2cn(Cc3ccco3)nn2)CCS(=O)(=O)N1Cc1ccc(-c2ccc(F)nc2)cc1 (stereo unspecified) |  | inconclusive: 35.5 µM [inhibitor, single point]
27 | CCOc1ccc(C(=O)Nc2nc3ccccc3[nH]2)cc1OCC |  | inconclusive: 22.4 µM [inhibitor, partial curve, poor fit]
28 | CC(=O)Nc1ccc2nc(SCCOc3cc(C)cc(C)c3)sc2c1 | inactive: -6.33% | 
29 | C=CC[C@H](CC(=O)NCCO)C(=O)N[C@@H](COC(=O)[C@@H](CC=C)Cc1ccc(F)cc1)Cc1c[nH]c2ccccc12 |  | inconclusive: 35.5 µM [inhibitor, single point]
30 | Cn1c(N)c(C(=O)COC(=O)c2ccccc2C(=O)c2ccccc2)c(=O)n(C)c1=O | inactive: 2.36% | 
31 | COc1cc(NC(=O)c2c(C)oc3c2C2=NCCN2C=N3)cc(OC)c1OC |  | inconclusive: 7.08 µM [inhibitor, full curve, poor fit]
32 | CCCCN(C(=O)Cc1ccc(S(=O)(=O)N2CCOCC2)s1)c1c(N)n(CCCC)c(=O)[nH]c1=O |  | inconclusive: 11.2 µM [inhibitor, partial curve]
33 | O=C(NNS(=O)(=O)c1ccc(Cl)cc1)c1cnn(-c2ccccc2)c1-n1cccc1 | inactive: -26.5% | 
34 | CCc1ccc(N2C(=O)c3sc4nnc(-c5ccccc5)c(=O)n4c3C2=O)cc1 | inactive: -5.17% | 
35 | CC(C)(C)OC(=O)N1CCC(c2c(C(=O)NCCc3ccccc3)cnn2-c2ccc(F)cc2)CC1 |  | inconclusive: 17.8 µM [inhibitor, single point]
36 | CCCCCCCCCC[n+]1ccc(/C=C/c2c[nH]c3ccccc23)cc1 | inactive: 260% | 
37 | COC(=O)c1cc(OC)c(OC)cc1NC(=S)N1CCN(c2ccccn2)CC1 | inactive: 20.3% | 
38 | CC(NC(=O)c1ccccc1F)C12CC3CC(CC(C3)C1)C2 (stereo unspecified) |  | inconclusive: 11.2 µM [inhibitor, single point]
39 | O=C(O)CCC(NC(=S)Nc1ccccc1)C(=O)O (stereo unspecified) | inactive: -2.35% | 
40 | CSc1ccc(OC2(C)CCN(Cc3ccc(OC(C)C)cc3)C2)cc1 (stereo unspecified) |  | inconclusive: 22.4 µM [inhibitor, single point]
41 | CC1CCCCN1S(=O)(=O)c1ccc2[nH]c(=O)cc(C(=O)NCCCN3CCCCCC3)c2c1 (stereo unspecified) | inactive: 8.59% | 
42 | Cc1ncc2c(c1OC(=O)c1ccccc1)COC(C)(C)OC2 |  | inconclusive: 4.47 µM [inhibitor, partial curve]
43 | Cc1ccc(C2=NC3(CCCC3)N=C2SCC(=O)Nc2ccc3c(c2)OCCO3)cc1 |  | inconclusive: 15.8 µM [inhibitor, single point]
44 | O=S(=O)(NCC(c1cccs1)S(=O)(=O)c1ccccc1)c1ccc(F)c(C(F)(F)F)c1 (stereo unspecified) |  | inconclusive: 35.5 µM [inhibitor, single point]

Row | Structure (SMILES) | activity, negative = inhibition | Potency
45 | COc1ccc(-c2[nH]c(-c3cccc(OC)c3)nc2SCC(=O)NC2CCCC2)cc1 |  | inconclusive: 35.5 µM [inhibitor, single point]
46 | O/N=C/c1cc(Br)ccc1OCc1ccccc1F |  | inconclusive: 35.5 µM [inhibitor, single point]
47 | NC(c1csc(Nc2cc(Oc3ccccc3)ncn2)n1)C1CCCCC1 (stereo unspecified) |  | inconclusive: 35.5 µM [inhibitor, single point]
48 | O=C1/C(=C/c2ccc(F)cc2)SC(=S)N1CCCC(=O)N1CCCCC1CCO (stereo unspecified) |  | inconclusive: 35.5 µM [inhibitor, single point]
49 | COc1cc(Cl)ccc1OC1(C)CCN(Cc2cccc(OC)c2OC)C1 (stereo unspecified) | inactive: -5.93% | 
50 | O=C(CSc1nnc2ccccn12)NNC(=O)c1ccc(F)cc1 |  | inconclusive: 14.1 µM [inhibitor, single point]
51 | O=C(NNC(=O)c1ccccc1-n1cccc1)c1ccc(Cl)cc1 | inactive: 22.8% | 
52 | CC(C)Oc1cccc(C(=O)C2CCCN(S(=O)(=O)C(C)C)C2)c1 (stereo unspecified) |  | inconclusive: 3.16 µM [inhibitor, single point]
53 | CN(CC(=O)NCc1ccccc1)S(=O)(=O)c1ccc2[nH]c3c(c2c1)CCCC3 |  | inconclusive: 35.5 µM [inhibitor, single point]
54 | Cc1ccc(S(=O)(=O)N2CCOCC2)cc1C(=O)Nc1nc(-c2ccccn2)cs1 |  | inconclusive: 2 µM [inhibitor, full curve]
55 | NC(=O)c1c(NC(NC(=O)c2ccco2)C(=O)c2ccc(Cl)cc2)sc2c1CCCC2 (stereo unspecified) |  | active: 15.8 µM
56 | CCCCCCNC(=O)O[C@@]12CN(S(=O)(=O)c3ccc(C)cc3)C[C@]1(O)Cn1c(=O)n(CCCCCC)c(=O)n1C2 |  | inconclusive: 22.4 µM [inhibitor, single point]
57 | Cc1cc(C)c(S(=O)(=O)Nc2ccc(-c3ccc(N4CCCCCC4)nn3)cc2)c(C)c1 |  | inconclusive: 0.282 µM [inhibitor, full curve]
58 | O=C(C#Cc1ccccc1)c1ccc([N+](=O)[O-])cc1 |  | inconclusive: 6.31 µM [inhibitor, single point]
59 | CCc1nc(-n2[nH]c(=O)c3ccccc3c2=O)c2c3c(sc2n1)CCCC3 |  | inconclusive: 6.31 µM [inhibitor, single point]
60 | CC1c2cc3c(cc2CCN1C(=O)c1ccc(C(F)(F)F)cc1)OCCCO3 (stereo unspecified) |  | inconclusive: 12.6 µM [inhibitor, partial curve, poor fit]
61 | COc1ccc(CC(=O)N2CCN(c3ccccn3)CC2)cc1OC | inactive: 29.6% | 
62 | COc1ccccc1C(C[N+](=O)[O-])c1c[nH]c2ccccc12 (stereo unspecified) |  | inconclusive: 35.5 µM [inhibitor, single point]
63 | CC(=O)NC(c1ccccc1)c1cc(Cl)c2cccnc2c1O (stereo unspecified) |  | inconclusive: 4.47 µM [inhibitor, full curve, poor fit]
64 | CCOc1ccc(/C=N\NC(=O)CC(=O)NCCc2ccccc2)cc1 | inactive: -12.9% | 
65 | CCCN(CC(=O)Nc1ccccc1C)C(=O)C1CCN(c2ncnc3sc(C)c(C)c23)CC1 |  | inconclusive: 35.5 µM [inhibitor, single point]
66 | Cc1nn(Cc2ccc(Cl)cc2)c(C)c1NC(=O)CSc1n[nH]c(C)c1[N+](=O)[O-] | inactive: 4.41% | 
